This is one part of the list.
Legend:
Assay in all cases: glycan array binding signal (z-score within array); higher = stronger binding
Details in all cases: glycan notation: IUPAC condensed, linker removed
[1] = biological target: Fuc(a1-2)Gal6S(b1-3)GlcNAc6S
Procedure, shortened: (§1)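 Columns mapping to the same glycan were averaged after glycan names were converted to IUPAC-condensed notation. The data come from 3228 arrays in the Consortium for Functional Glycomics database, limited to those with an available protein sequence. Binding is reported as a within-array Z-score averaged across arrays of one protein sequence and across linkers.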

Fuc(a1-2)Gal6S(b1-4)Glc = biological target: Fuc(a1-2)Gal6S(b1-4)Glc
Procedure, shortened: as §1

[2] = biological target: Fuc(a1-2)Gal6S(b1-4)Glc6S
Procedure, shortened: as §1

Fuc(a1-2)[Gal(a1-3)]Gal = biological target: Fuc(a1-2)[Gal(a1-3)]Gal
Procedure, shortened: as §1

[3] = biological target: Fuc(a1-2)[Gal(a1-3)]Gal(b1-3)GalNAc
Procedure, shortened: as §1

[4] = biological target: Fuc(a1-2)[Gal(a1-3)]Gal(b1-3)GalNAc(b1-3)Gal(a1-4)Gal(b1-4)Glc
Procedure, shortened: as §1

[5] = biological target: Fuc(a1-2)[Gal(a1-3)]Gal(b1-3)GlcNAc
Procedure, shortened: as §1

[6] = biological target: Fuc(a1-2)[Gal(a1-3)]Gal(b1-3)GlcNAc(b1-2)Man(a1-3)[Fuc(a1-2)[Gal(a1-3)]Gal(b1-3)GlcNAc(b1-2)Man(a1-6)]Man(b1-4)GlcNAc(b1-4)GlcNAc
Procedure, shortened: as §1

[7] = biological target: Fuc(a1-2)[Gal(a1-3)]Gal(b1-3)GlcNAc(b1-2)Man(a1-3)[Fuc(a1-2)[Gal(a1-3)]Gal(b1-3)GlcNAc(b1-2)Man(a1-6)]Man(b1-4)GlcNAc(b1-4)[Fuc(a1-6)]GlcNAc
Procedure, shortened: as §1

[8] = biological target: Fuc(a1-2)[Gal(a1-3)]Gal(b1-3)GlcNAc(b1-3)GalNAc
Procedure, shortened: as §1

[9] = biological target: Fuc(a1-2)[Gal(a1-3)]Gal(b1-3)GlcNAc(b1-6)GalNAc
Procedure, shortened: as §1

[10] = biological target: Fuc(a1-2)[Gal(a1-3)]Gal(b1-4)Glc
Procedure, shortened: as §1

[11] = biological target: Fuc(a1-2)[Gal(a1-3)]Gal(b1-4)GlcNAc
Procedure, shortened: as §1

[12] = biological target: Fuc(a1-2)[Gal(a1-3)]Gal(b1-4)GlcNAc(b1-2)Man
Procedure, shortened: as §1

[13] = biological target: Fuc(a1-2)[Gal(a1-3)]Gal(b1-4)GlcNAc(b1-2)Man(a1-3)[Fuc(a1-2)[Gal(a1-3)]Gal(b1-4)GlcNAc(b1-2)Man(a1-6)]Man(b1-4)GlcNAc(b1-4)GlcNAc
Procedure, shortened: as §1

[14] = biological target: Fuc(a1-2)[Gal(a1-3)]Gal(b1-4)GlcNAc(b1-2)Man(a1-3)[Fuc(a1-2)[Gal(a1-3)]Gal(b1-4)GlcNAc(b1-2)Man(a1-6)]Man(b1-4)GlcNAc(b1-4)[Fuc(a1-6)]GlcNAc
Procedure, shortened: as §1

[15] = biological target: Fuc(a1-2)[Gal(a1-3)]Gal(b1-4)GlcNAc(b1-3)GalNAc
Procedure, shortened: as §1

[16] = biological target: Fuc(a1-2)[Gal(a1-3)]Gal(b1-4)GlcNAc(b1-3)[Fuc(a1-2)[Gal(a1-3)]Gal(b1-4)GlcNAc(b1-6)]GalNAc
Procedure, shortened: as §1

[17] = biological target: Fuc(a1-2)[Gal(a1-3)]Gal(b1-4)GlcNAc(b1-6)GalNAc
Procedure, shortened: as §1

[18] = biological target: Fuc(a1-2)[Gal(a1-3)]Gal(b1-4)[Fuc(a1-3)]Glc
Procedure, shortened: as §1

[19] = biological target: Fuc(a1-2)[Gal(a1-3)]Gal(b1-4)[Fuc(a1-3)]GlcNAc
Procedure, shortened: as §1

[20] = biological target: Fuc(a1-2)[Gal(a1-3)]Gal(b1-4)[Fuc(a1-3)]GlcNAc(b1-3)GalNAc
Procedure, shortened: as §1

[21] = biological target: Fuc(a1-2)[Gal(a1-4)]Gal(b1-4)GlcNAc
Procedure, shortened: as §1

[22] = biological target: Fuc(a1-2)[GalNAc(a1-3)]Gal
Procedure, shortened: as §1

[23] = biological target: Fuc(a1-2)[GalNAc(a1-3)]Gal(b1-3)GalNAc(a1-3)[Fuc(a1-2)]Gal(b1-4)GlcNAc
Procedure, shortened: as §1

[24] = biological target: Fuc(a1-2)[GalNAc(a1-3)]Gal(b1-3)GalNAc(b1-3)Gal(a1-4)Gal(b1-4)Glc
Procedure, shortened: as §1

[25] = biological target: Fuc(a1-2)[GalNAc(a1-3)]Gal(b1-3)GlcNAc
Procedure, shortened: as §1

[26] = biological target: Fuc(a1-2)[GalNAc(a1-3)]Gal(b1-3)GlcNAc(b1-2)Man(a1-3)[Fuc(a1-2)[GalNAc(a1-3)]Gal(b1-3)GlcNAc(b1-2)Man(a1-6)]Man(b1-4)GlcNAc(b1-4)GlcNAc
Procedure, shortened: as §1

[27] = biological target: Fuc(a1-2)[GalNAc(a1-3)]Gal(b1-3)GlcNAc(b1-2)Man(a1-3)[Fuc(a1-2)[GalNAc(a1-3)]Gal(b1-3)GlcNAc(b1-2)Man(a1-6)]Man(b1-4)GlcNAc(b1-4)[Fuc(a1-6)]GlcNAc
Procedure, shortened: as §1

[28] = biological target: Fuc(a1-2)[GalNAc(a1-3)]Gal(b1-3)GlcNAc(b1-3)GalNAc
Procedure, shortened: as §1

[29] = biological target: Fuc(a1-2)[GalNAc(a1-3)]Gal(b1-3)GlcNAc(b1-6)GalNAc
Procedure, shortened: as §1

[30] = biological target: Fuc(a1-2)[GalNAc(a1-3)]Gal(b1-4)Glc
Procedure, shortened: as §1

[31] = biological target: Fuc(a1-2)[GalNAc(a1-3)]Gal(b1-4)GlcNAc
Procedure, shortened: as §1

[32] = biological target: Fuc(a1-2)[GalNAc(a1-3)]Gal(b1-4)GlcNAc(b1-2)Man
Procedure, shortened: as §1

[33] = biological target: Fuc(a1-2)[GalNAc(a1-3)]Gal(b1-4)GlcNAc(b1-2)Man(a1-3)[Fuc(a1-2)[GalNAc(a1-3)]Gal(b1-4)GlcNAc(b1-2)Man(a1-6)]Man(b1-4)GlcNAc(b1-4)GlcNAc
Procedure, shortened: as §1

[34] = biological target: Fuc(a1-2)[GalNAc(a1-3)]Gal(b1-4)GlcNAc(b1-2)Man(a1-3)[Fuc(a1-2)[GalNAc(a1-3)]Gal(b1-4)GlcNAc(b1-2)Man(a1-6)]Man(b1-4)GlcNAc(b1-4)[Fuc(a1-6)]GlcNAc
Procedure, shortened: as §1

[35] = biological target: Fuc(a1-2)[GalNAc(a1-3)]Gal(b1-4)GlcNAc(b1-3)Gal(b1-4)GlcNAc
Procedure, shortened: as §1

[36] = biological target: Fuc(a1-2)[GalNAc(a1-3)]Gal(b1-4)GlcNAc(b1-3)Gal(b1-4)GlcNAc(b1-3)Gal(b1-4)GlcNAc
Procedure, shortened: as §1

[37] = biological target: Fuc(a1-2)[GalNAc(a1-3)]Gal(b1-4)GlcNAc(b1-3)GalNAc
Procedure, shortened: as §1

[38] = biological target: Fuc(a1-2)[GalNAc(a1-3)]Gal(b1-4)GlcNAc(b1-3)[Fuc(a1-2)[GalNAc(a1-3)]Gal(b1-4)GlcNAc(b1-6)]GalNAc
Procedure, shortened: as §1

[39] = biological target: Fuc(a1-2)[GalNAc(a1-3)]Gal(b1-4)GlcNAc(b1-6)GalNAc
Procedure, shortened: as §1

[40] = biological target: Fuc(a1-2)[GalNAc(a1-3)]Gal(b1-4)[Fuc(a1-3)]GlcNAc
Procedure, shortened: as §1

[41] = biological target: Fuc(a1-2)[GalNAc(a1-3)]Gal(b1-4)[Fuc(a1-3)]GlcNAc(b1-3)GalNAc
Procedure, shortened: as §1

[42] = biological target: Fuc(a1-2)[GalNAc(a1-4)]Gal(b1-4)GlcNAc
Procedure, shortened: as §1

[43] = biological target: Fuc(a1-2)[GalNAc(b1-3)]Gal
Procedure, shortened: as §1

B1: GNL (Galanthus nivalis) (protein)
chain: MGHHHHHHHHYGTLENGHWLMVGMSIFSKDRTVELRMQDDGKLAIYYNDHCAWQSTAQQVNNAKGAVMQGDGNFCIYDKNGKATWHTNTAAPSGDSHTFVSVQDDGNLVLYKNNGATPIWSSKSNK
glycan array binding signal (z-score) [1]: -0.071
glycan array binding signal (z-score) (Fuc(a1-2)Gal6S(b1-4)Glc): -0.191
glycan array binding signal (z-score) [2]: -0.251
glycan array binding signal (z-score) (Fuc(a1-2)[Gal(a1-3)]Gal): -0.222
glycan array binding signal (z-score) [3]: -0.187
glycan array binding signal (z-score) [4]: -0.172
glycan array binding signal (z-score) [5]: -0.296
glycan array binding signal (z-score) [6]: 1.83
glycan array binding signal (z-score) [7]: -0.17
glycan array binding signal (z-score) [8]: -0.304
glycan array binding signal (z-score) [9]: -0.174
glycan array binding signal (z-score) [10]: -0.222
glycan array binding signal (z-score) [11]: -0.187
glycan array binding signal (z-score) [12]: -0.241
glycan array binding signal (z-score) [13]: -0.068
glycan array binding signal (z-score) [14]: -0.188
glycan array binding signal (z-score) [15]: -0.156
glycan array binding signal (z-score) [16]: -0.174
glycan array binding signal (z-score) [17]: -0.187
glycan array binding signal (z-score) [18]: -0.26
glycan array binding signal (z-score) [19]: -0.264
glycan array binding signal (z-score) [20]: -0.209
glycan array binding signal (z-score) [21]: -0.238
glycan array binding signal (z-score) [22]: -0.232
glycan array binding signal (z-score) [23]: -0.284
glycan array binding signal (z-score) [24]: -0.228
glycan array binding signal (z-score) [25]: -0.249
glycan array binding signal (z-score) [26]: 0.948
glycan array binding signal (z-score) [27]: 0.142
glycan array binding signal (z-score) [28]: -0.218
glycan array binding signal (z-score) [29]: -0.294
glycan array binding signal (z-score) [30]: -0.198
glycan array binding signal (z-score) [31]: -0.211
glycan array binding signal (z-score) [32]: -0.244
glycan array binding signal (z-score) [33]: -0.066
glycan array binding signal (z-score) [34]: -0.207
glycan array binding signal (z-score) [35]: -0.247
glycan array binding signal (z-score) [36]: -0.209
glycan array binding signal (z-score) [37]: -0.142
glycan array binding signal (z-score) [38]: -0.262
glycan array binding signal (z-score) [39]: -0.302
glycan array binding signal (z-score) [40]: -0.274
glycan array binding signal (z-score) [41]: -0.162
glycan array binding signal (z-score) [42]: -0.233
glycan array binding signal (z-score) [43]: -0.232
